This is an account of results in article PMC4336329 (PLoS ONE, 2015).

Out of some 310,000 compounds screened, about 14,000 (4.5%) showed an effect of 50% or more. Effects have a minus sign here. The list shows a part of the results.
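Further: peak tail current of the secondary pulse compared with the same well before compound.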

In the assay the target is human ether-à-go-go-related gene (hERG) potassium channel (human, UniProt Q12809). Kind of assay: primary screen, population patch clamp on CHO cells stably expressing hERG.
human ether-à-go-go-related gene (hERG) potassium channel, sequence (Q12809 whole entry, looked up): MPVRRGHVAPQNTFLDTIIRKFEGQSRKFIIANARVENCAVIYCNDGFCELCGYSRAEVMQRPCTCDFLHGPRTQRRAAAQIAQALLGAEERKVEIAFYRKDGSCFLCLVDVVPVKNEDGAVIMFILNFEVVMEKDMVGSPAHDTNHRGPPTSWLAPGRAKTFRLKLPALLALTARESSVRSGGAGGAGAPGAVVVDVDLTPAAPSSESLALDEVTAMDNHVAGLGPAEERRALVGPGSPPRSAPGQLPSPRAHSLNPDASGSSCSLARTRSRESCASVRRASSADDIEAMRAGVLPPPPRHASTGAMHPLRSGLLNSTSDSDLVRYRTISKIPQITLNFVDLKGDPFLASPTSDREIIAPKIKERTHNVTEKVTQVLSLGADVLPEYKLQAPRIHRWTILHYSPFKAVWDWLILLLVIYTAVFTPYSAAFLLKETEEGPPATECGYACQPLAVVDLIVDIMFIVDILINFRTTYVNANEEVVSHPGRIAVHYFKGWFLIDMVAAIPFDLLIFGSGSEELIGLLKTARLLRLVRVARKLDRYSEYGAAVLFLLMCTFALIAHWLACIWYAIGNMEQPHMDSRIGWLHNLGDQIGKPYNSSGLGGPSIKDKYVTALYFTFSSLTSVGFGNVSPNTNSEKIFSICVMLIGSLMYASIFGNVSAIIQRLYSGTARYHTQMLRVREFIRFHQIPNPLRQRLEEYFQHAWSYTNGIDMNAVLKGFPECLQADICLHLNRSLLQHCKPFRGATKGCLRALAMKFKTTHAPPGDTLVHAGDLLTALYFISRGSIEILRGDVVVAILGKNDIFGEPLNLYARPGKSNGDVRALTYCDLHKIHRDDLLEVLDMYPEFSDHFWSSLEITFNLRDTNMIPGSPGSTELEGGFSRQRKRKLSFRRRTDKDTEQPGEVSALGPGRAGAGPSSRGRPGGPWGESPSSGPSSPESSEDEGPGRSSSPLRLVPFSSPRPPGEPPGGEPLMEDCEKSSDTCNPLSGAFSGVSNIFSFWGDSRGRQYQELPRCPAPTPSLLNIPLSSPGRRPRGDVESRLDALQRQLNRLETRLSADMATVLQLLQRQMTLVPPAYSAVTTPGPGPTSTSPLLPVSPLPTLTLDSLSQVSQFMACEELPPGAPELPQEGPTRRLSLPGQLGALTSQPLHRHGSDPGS
In the case of `CCc1nnc(SCc2ccc(C(=O)OC)o2)n1N.Cl`, the “hERG current change (%, negative = inhibition) at 10uM” value is recorded as 12%. The result for `O=S(=O)([N-]c1nc2ccccc2nc1-[n+]1ccccc1)c1ccc(F)cc1` reads 8.09%.

Consider `C=CCOC(=O)CCCC(=O)NC1CCCCC1`, for which the “hERG current change (%, negative = inhibition) at 10uM” value is -4.26%. Under `COc1cc(OC)cc(C(=O)N[C@H](C(=O)NCCc2c[nH]c3ccccc23)C(C)C)c1` stands 10.1%. Consider `CC(Oc1ccccc1F)C(=O)NNC(=O)CCS(=O)(=O)c1ccccc1Cl` (centres unmarked), for which the “hERG current change (%, negative = inhibition) at 10uM” value is on record as -19.2%. The result for `Cc1cc2occ(CC(=O)Nc3nnc(C4CC4)s3)c2cc1C` reads 12.2%; that for `CCN1CCN(S(=O)(=O)c2ccc(Cl)c(C(=O)N(C)Cc3ccccc3)c2)CC1`, -28.8%; that for `Cc1cc(C)n2nc(C(=O)OCC(=O)NC(=O)c3ccccc3)nc2n1`, 14.5%. The result for `CCOC(=O)N1CCN(S(=O)(=O)/C=C/c2ccccc2)CC1` reads -17.5%; that for `CNC(=O)/C(C#N)=C1\SC(Cc2ccc(F)cc2)C(=O)N1c1ccccc1C` (centres unmarked), -3.88%; that for `O=C(COc1ccc(Br)cc1)Nc1nnc(C2CC2)s1`, -4.14%.

For `C[N+](C)(C)CC(=O)N1CCN(c2ccc3ccccc3n2)CC1.[Cl-]`, the “hERG current change (%, negative = inhibition) at 10uM” value is 20.6%. As to `CCn1ncc(Br)c1C(=O)Nc1ccc(F)c([N+](=O)[O-])c1`, the “hERG current change (%, negative = inhibition) at 10uM” value is recorded as -8.54%.

As for `Cc1ccc(Nc2nc(N)nc(CSc3nccn3C)n2)c(C)c1`, the “hERG current change (%, negative = inhibition) at 10uM” value turned out to be 6.3%. Under `CC(OC(=O)CNC(=O)C12CC3CC(CC(C3)C1)C2)C(=O)Nc1ccc(S(N)(=O)=O)cc1` (centres unmarked) stands 9.83%. `CCO[C@H]1OC(C(=O)N2CCN(Cc3ccccc3)CC2)=C[C@@H](c2cn(C(C)=O)c3ccccc23)[C@@H]1CCCO`: the “hERG current change (%, negative = inhibition) at 10uM” value is -54%. Regarding `O=C1NN(c2ccccc2)C(=O)/C1=C/c1ccc(-c2cccc(C(=O)O)c2)o1`, the “hERG current change (%, negative = inhibition) at 10uM” value stood at 9.63%. Under `Cc1ccccc1C1=NCC(=O)N(CC(=O)N2CCCCC2)c2sc(C)c(C)c21` stands -19.3%. The result for `CCCCCn1c(SCC(=O)OCC)nc2cc(C(=O)NCc3ccco3)ccc2c1=O` reads 2.51%. The result for `CC(=O)Nc1ccc(S(=O)(=O)N2CCN=C2SCc2ccc(C)cc2)cc1` reads -12%.

As for `Cc1cc(OCCn2cnc3ccccc3c2=O)cc(C(C)C)c1`, the “hERG current change (%, negative = inhibition) at 10uM” value was -8.11%.

In the case of `Cc1ccc(C2=C(c3ccc([N+](=O)[O-])cc3)C(=O)OC2)cc1C`, the “hERG current change (%, negative = inhibition) at 10uM” value was -45.7%. The result for `CCCn1c2ccccc2c2cnn(CC(=O)NCCCN3CCCCC3)c(=O)c21` reads -53.4%.

For the molecule `c1ccc(Nc2ccccc2)cc1`, the “hERG current change (%, negative = inhibition) at 10uM” value is listed as 3.63%. The result for `CC(=O)c1cccc(N=Nc2c(-c3ccccc3)[nH]n(-c3ccccc3)c2=O)c1` reads 33.7%; that for `Cc1ccccc1C(=O)NC(=S)NCCC1=CCCCC1`, 13.4%; that for `CCCCOc1ccc(N(CC(=O)NC(C)(C)C)C(=O)CCC(=O)Nc2nccs2)cc1`, 3.69%.

Regarding `CCN(CC(=O)Nc1ccc2c(c1)OCCO2)c1ccc(S(=O)(=O)N2CCOCC2)cn1`, the “hERG current change (%, negative = inhibition) at 10uM” value is given as 0.9%.

As for `Cc1ccc(-c2ccc(=O)n(CCC(=O)N3CCN(c4cccc(C)c4)C(C)C3)n2)cc1` (centres unmarked), the “hERG current change (%, negative = inhibition) at 10uM” value was -18.2%. In the case of `COc1ccc(OC)c(CCNC(=O)Cn2ccc3cc(S(=O)(=O)N4CCCC4)ccc32)c1`, the “hERG current change (%, negative = inhibition) at 10uM” value is listed as -13.9%.

For `CCc1nnc(NC(=O)c2ccc(-c3ccc(F)cc3)o2)s1`, the “hERG current change (%, negative = inhibition) at 10uM” value was 8.98%.

As for `COc1ccccc1NCC(=O)N/N=C(\C)c1cccs1`, the “hERG current change (%, negative = inhibition) at 10uM” value is recorded as 6.3%. The result for `Cc1nc(N2CCC(C)CC2)c2c(C)c(C(=O)Nc3cc(F)ccc3C)sc2n1` reads 9.74%; that for `CS/C(=N\S(=O)(=O)c1cccs1)Nc1ccc(N2CCOCC2)cc1`, -12.3%. Under `COCCn1c(N)c(C(=O)NCc2cccs2)c2nc3ccccc3nc21` stands 6.25%; under `O=C(O)c1cn(Cc2ccccc2)c2ccc(Cl)cc2c1=O`, -76.3%.

For the molecule `O=C1OC(c2ccccc2)=NC12CC2c1ccc(Cl)cc1` (centres unmarked), the “hERG current change (%, negative = inhibition) at 10uM” value is 8.97%.

With `CCN(CC(=O)N1CCCCCC1)S(=O)(=O)c1ccc(C)cc1`, the “hERG current change (%, negative = inhibition) at 10uM” value was 9.33%. Consider `COc1cccc(CN2CCN(Cc3nc4c(s3)CCCC4)CC2CCO)c1` (centres unmarked), for which the “hERG current change (%, negative = inhibition) at 10uM” value is reported as -48.5%.

In the case of `O=C1OC(c2ccccc2)=C/C1=C\N1CCOCC1`, the “hERG current change (%, negative = inhibition) at 10uM” value was 3.53%.

Regarding `COc1ccc(NC(=O)CSc2nnc(-c3cc(C)[nH]n3)n2N)cc1OC`, the “hERG current change (%, negative = inhibition) at 10uM” value was 20.2%. Under `CCOc1ccc(C(=O)Nc2ccc(S(=O)(=O)NCC3CCCO3)cc2)cc1OCC` (centres unmarked) stands 14.5%. Under `COc1cc2cc(CN(CCc3cccc(C)c3)C(=S)NCCCN(C)C)c(=O)[nH]c2cc1OC` stands -1.74%; under `Cc1cc(NC(=O)CN2C(=O)NC(C)(CCc3ccccc3)C2=O)no1` (centres unmarked), -1.81%. As for `C#CCOCCOCCOCCNc1nc(N2CCN(C(=O)[C@H]([C@@H](C)CC)n3cc(CCC(=O)O)nn3)CC2)nc(N2CCN(C(=O)[C@H](C)n3cc(CCC[NH+]=C(N)N)nn3)CC2)n1.[Cl-]`, the “hERG current change (%, negative = inhibition) at 10uM” value is recorded as 6.34%.

For the molecule `O=C(Cc1ccccc1F)NCC1(N2CCOCC2)CCCCC1`, the “hERG current change (%, negative = inhibition) at 10uM” value was -2.68%.

`CN(CCN1CCOCC1)Cc1nc(-c2ccc(Cl)cc2)no1`: the “hERG current change (%, negative = inhibition) at 10uM” value is listed as -28.1%.

On to `CCOC(=O)c1c(NCc2ccccc2)n[nH]c1C`, for which the “hERG current change (%, negative = inhibition) at 10uM” value is 5%.

On to `COc1cc2c(cc1OC)CN(C(=O)CC1CC3CCC1C3)CC2` (centres unmarked), for which the “hERG current change (%, negative = inhibition) at 10uM” value was -10.1%. Under `O=C(NC1CCCCC1)C(c1ccccc1F)N(C(=O)c1csnn1)C1CCCC1` (centres unmarked) stands 2.46%.

Take `COc1ccccc1Sc1nc(-c2ccccn2)ncc1OC`: the “hERG current change (%, negative = inhibition) at 10uM” value came out at 12.2%. The result for `Cc1ccc(S(=O)(=O)N2CCCCC2)cc1NC(=O)CCc1nc2ccccc2c(=O)[nH]1` reads -24.3%; that for `COc1ccc(C(=O)Nc2ccc(C(=O)O)cc2NC(=O)c2ccc(OC)cc2)cc1`, 18.8%; that for `COc1cccc(CN(C)C(=O)c2cc(S(=O)(=O)NC3CCCCC3)ccc2C)c1OC`, -4.41%. As to `Cc1cc(=O)[nH]c(N/N=C/c2ccc(C)o2)n1`, the “hERG current change (%, negative = inhibition) at 10uM” value is reported as 4.6%.

As to `CN(C)C(=O)C(Sc1ccc(S(=O)(=O)N2CCCC2)cn1)c1ccccc1` (centres unmarked), the “hERG current change (%, negative = inhibition) at 10uM” value is on record as -13.4%. The result for `Cc1ccc2nc(NC(=O)CCn3c(=O)sc4ccccc43)sc2c1` reads 1.59%. The result for `Cc1cccc(-c2nc(CN3CCCC(C(=O)NC4CCC(C)CC4)C3)c(C)o2)c1` (centres unmarked) reads -68.4%; that for `CC(C)N1CCc2c(sc(N)c2C#N)C1`, -8.82%. For `CCN1CCN(c2ccc(NC(=O)c3cc4ccccc4cc3OC)cc2C)CC1`, the “hERG current change (%, negative = inhibition) at 10uM” value is -48.7%. Take `N#Cc1c(-c2ccccc2)nc(SCc2cccc(Cl)c2)[nH]c1=O`: the “hERG current change (%, negative = inhibition) at 10uM” value is on record as 8.7%. Take `COc1ccc(C(=O)Nc2ccc3nc(N4CCCCC4)cc(C)c3c2)c(OC)c1`: the “hERG current change (%, negative = inhibition) at 10uM” value was 4.06%. Under `O=C(NNC(=S)NCc1ccccc1)c1cccc([N+](=O)[O-])c1` stands 14.1%; under `CCCCOc1ccc(/C(O)=C(\C#N)c2nc3ccccc3[nH]2)cc1`, 7.5%. Under `O=C(Cn1cc([N+](=O)[O-])cn1)N1CCN(Cc2ccc3c(c2)OCO3)CC1` stands -14.2%. Under `Cc1ccc2nc(-c3ccccn3)[nH]c2c1.Cl` stands -1.64%; under `Clc1cccc(OCCN2CCOCC2)c1.O=C(O)C(=O)O`, -2.27%.

As for `O=C(Nc1ncccc1Cl)c1ccccc1F`, the “hERG current change (%, negative = inhibition) at 10uM” value is given as 3.13%. Under `COc1cc(C(C2=C(O)CC(C)(C)CC2=O)C2C(=O)CC(C)(C)CC2=O)cc(OC)c1OC` (centres unmarked) stands 14.9%. Take `COC(=O)C/C=C/[C@@H](C)[C@@H](/C=N/O[C@H](C)c1cn([C@@H]2COC[C@H]2O)nn1)NS(=O)(=O)c1ccc(C)cc1`: the “hERG current change (%, negative = inhibition) at 10uM” value is reported as 4.63%. Under `NC(=O)C1CC(=O)N(c2ccc(OCC(=O)Nc3ccc(Cl)cc3)cc2)C1` (centres unmarked) stands 3.98%; under `Cc1cccc(-n2cc(CN3CCCN(C=O)CC3)c(-c3cccc(F)c3)n2)c1`, -10.8%; under `CCc1ccc(-c2cc(C)no2)cc1S(=O)(=O)N1CCCN(Cc2ccc(F)cc2)C1`, 5.62%.

As for `O=C(CN1c2cccc3cccc(c23)S1(=O)=O)N1CCOCC1`, the “hERG current change (%, negative = inhibition) at 10uM” value came to 20.8%. The result for `NC1=NC(=O)/C(=C/c2ccccc2OS(=O)(=O)c2ccccc2)S1` reads 5.2%; that for `Cc1ccccc1NC(=O)Cc1nnc(NC(=O)Nc2ccccc2F)s1`, 23.1%. The result for `Cn1cnnc1SCC(=O)Nc1ccc(F)cc1F` reads 34.2%; that for `CCc1ccccc1NC(=O)CN(C1CCCCC1)S(C)(=O)=O`, 4.29%; that for `CCOC(=O)C(O)(CCC(O)(C(=O)OCC)C(=O)OCC)C(=O)OCC`, 5.85%. Under `Cc1cccc(-n2ncc3c2CCCC3NC(=O)CCc2ccncc2)c1C` (centres unmarked) stands 4.95%. Turning to `CNC(=S)n1cnc(N)n1`, the “hERG current change (%, negative = inhibition) at 10uM” value amounted to 8.75%. Under `Cc1ccc(Nc2nc(-c3ccc(O)cc3O)cs2)nc1` stands 11.1%; under `O=C(CSc1nncs1)NCc1ccc(F)cc1`, 18.9%; under `Cn1c(CCCNC(=O)c2ccccc2)nc2ccccc21`, -5.7%. Under `Cc1ccc(S(=O)(=O)N2CCCCC2C(=O)N2CCN(c3ccccc3F)CC2)cc1` (centres unmarked) stands 15.6%.

`Cc1cnc(NC(=O)C2=C(O)c3ccccc3S(=O)(=O)N2C)s1`: the “hERG current change (%, negative = inhibition) at 10uM” value is 3.69%.
